Data on 219 sequences can be found in article PMC4242493.

This is one part of the list. The list includes weakly bound sequences.

This experiment has as its target MaxL homodimer (UniProt P61244). The experiment in a line: universal protein-binding microarray (PBM). The settings on record: PBS-based mixture, 10 nM His-tagged protein dimer, 2% milk, 200 ng/uL BSA, 50 ng/uL salmon testes DNA, 0.02% TX-100; detection with Alexa 488 anti-His …; high values mean tight binding; most listed sequences are background and not binding sites; double strand, one strand shown.
Chain of UniProt P61244 (P61244 whole entry): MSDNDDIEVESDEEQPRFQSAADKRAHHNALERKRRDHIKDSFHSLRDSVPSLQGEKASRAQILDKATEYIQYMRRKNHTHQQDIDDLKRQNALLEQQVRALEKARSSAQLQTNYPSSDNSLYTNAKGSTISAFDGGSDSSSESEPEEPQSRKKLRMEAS
Regarding AATGCTCG, the binding signal (normalized occupancy) was 0.0783.
Next, AGATTCGC: 0.079; CTCCCTAA: 0.0737; TGTTCAAA: 0.0769.
Regarding ATGAAGAC, the binding signal (normalized occupancy) amounted to 0.0744.
With CGCCTCCC, the binding signal (normalized occupancy) is 0.0717.
In the case of CACTACTA, the binding signal (normalized occupancy) came out at 0.0788.
To GATTGACC belongs 0.0763; to ATCAACCG, 0.0737; to AACATCAT, 0.0847.
As to AGCCAGAC, the binding signal (normalized occupancy) came to 0.0684.
To ACTCTGGG belongs 0.0689; to CGACGACA, 0.0764.
With CCTAAACA, the binding signal (normalized occupancy) turned out to be 0.0822.
On to AAATGTAA, for which the binding signal (normalized occupancy) was found to be 0.0834.
Regarding CCAGTCGG, the binding signal (normalized occupancy) stood at 0.0704.
As to CACGACAG, the binding signal (normalized occupancy) came to 0.0802.
Next, TCAGGTCA: 0.0755.
To AAGTTTAA belongs 0.0727; to AACTCTGG, 0.0695; to ACTTTCCA, 0.0775.
Next, GCCCCCAC: 0.0825.
For GGCCGTAA, the binding signal (normalized occupancy) came out at 0.0679.
Next, CTCACCTA: 0.0723.
With CCGAATCG, the binding signal (normalized occupancy) is 0.0727.
For the sequence GGTGTATA, the binding signal (normalized occupancy) was 0.0848.
Regarding AAAAATAA, the binding signal (normalized occupancy) is 0.0745.
Next, ATGATCCG: 0.0801; CAAGCGCC: 0.0701; CTTGGGAC: 0.0664.
Next, ACAAGTCC: 0.0711; AACGTTCA: 0.0836; AATGAGAT: 0.0763.
Next, CGGATTCA: 0.0802.
For the sequence GACGGTCA, the binding signal (normalized occupancy) was 0.0718.
Next, GGCCGTTA: 0.0698; AATCTCCG: 0.0702.
To ACGCCATG belongs 0.102.
Next, CGAAAGAG: 0.0688; ACTTACGA: 0.0726; GAGTCTAA: 0.07.
As for CGGCATGC, the binding signal (normalized occupancy) is 0.109.
To GTGACTCA belongs 0.0783; to CTTCGCTA, 0.0727; to ATTTGTAA, 0.0789.
Next, AAGGACTC: 0.071; GCTGTTCA: 0.0756.
For the sequence GGTCCATA, the binding signal (normalized occupancy) was found to be 0.0786.
To ATCAAGCG belongs 0.074.
To ACTGAATC belongs 0.0726; to ACATCTTC, 0.0843.
Next, ACCGCCCA: 0.0692.
GTCATGCA: the binding signal (normalized occupancy) came out at 0.0869.
Next, AATAACGC: 0.0797; CACTTGGA: 0.0717.
To CCCCGTCC belongs 0.0767; to TAGCAGAA, 0.0746; to ACTCCTCG, 0.0738.
Next, AATACTAA: 0.0796; ACAGCGCA: 0.0692.
AGTGGGTA: the binding signal (normalized occupancy) is 0.0721.
For the sequence ATCAGTCC, the binding signal (normalized occupancy) stood at 0.0762.
Next, ATCCTTTA: 0.0763; ACGTTTGG: 0.0806; ACCCCTAC: 0.0867.
To GCGGCAGA belongs 0.0734; to ATCTAGAT, 0.0728.
Next, ATTCCCGC: 0.0772.
As for AAGGCTTA, the binding signal (normalized occupancy) came to 0.0721.
Next, CGCGCCCG: 0.0682; CGCAGTAG: 0.0689.
To CCTCGGAG belongs 0.0661.
Regarding GACGGTGC, the binding signal (normalized occupancy) worked out at 0.0735.
Turning to GTAACTTA, the binding signal (normalized occupancy) was determined as 0.0742.
Next, CACTGATC: 0.0773; AGGCGAGA: 0.0696.
To ATCTATAG belongs 0.0834.
On to AATCATAT, for which the binding signal (normalized occupancy) was 0.0881.
Next, AGTGCGAT: 0.0772; ATTTGCCA: 0.076; GATGAACA: 0.0757.
Next, CAATCACG: 0.0875; AAATCTGC: 0.0724.
To AGTGAAGA belongs 0.0699; to TTATCCAA, 0.0722.
As to GGGAGTGA, the binding signal (normalized occupancy) came to 0.0774.
Next, CAGTAAGC: 0.0728; CCAATTCG: 0.0738.
For CGGTAATC, the binding signal (normalized occupancy) stood at 0.0753.
To ACTAAGAA belongs 0.0735; to ACGATGTA, 0.0819.
To CCCGGTCC belongs 0.0685; to AGATCCGA, 0.0742.
As to CTATAAGA, the binding signal (normalized occupancy) came to 0.0839.
Consider AGTCAAAC, for which the binding signal (normalized occupancy) came out at 0.0698.
Next, ATGTCGAG: 0.082; ATTGTAAG: 0.0752; TCTGCCAA: 0.0728.
As to AGCAGAGA, the binding signal (normalized occupancy) stood at 0.0749.
Next, CAACCTTG: 0.0747.
Next, AATTTCGA: 0.0712.
Next, ATAGTGAT: 0.0777; TACTTCGA: 0.0724.
With ACCGACTG, the binding signal (normalized occupancy) worked out at 0.0675.
To CAGTGTTA belongs 0.0765; to AGCAAGCG, 0.0711.
To CTCACGGA belongs 0.0748; to AGGTCAAT, 0.0787.
To CTTTAGGC belongs 0.0741; to AATCTTAT, 0.0745.
For the sequence CGAAGCTC, the binding signal (normalized occupancy) was 0.0658.
To GCCTCTGA belongs 0.071; to ACCACGAA, 0.0771.
To ATTACTGG belongs 0.0745.
Next, ACTGATCG: 0.077; CAGTTGAG: 0.0686.
With AGTAGGCC, the binding signal (normalized occupancy) was 0.0717.
Next, TCATGGCA: 0.0816; GCAGGTCC: 0.0729; ACGCGCGT: 0.0896.
For the sequence TGGTCTAA, the binding signal (normalized occupancy) worked out at 0.0714.
To GTTAACTA belongs 0.0772; to GTCTGTCA, 0.0714.
To GCAAGAGC belongs 0.0746; to ACGCGGAT, 0.0814.
Next, ACAGGCAA: 0.0787.
Regarding CCAACCGG, the binding signal (normalized occupancy) amounted to 0.069.
To GTCGCTCA belongs 0.0755.
Next, CCCAGGTA: 0.08; GAAACCCC: 0.078; ACTAACAA: 0.0766.
To ACCGGTAG belongs 0.0719.
For GGAAGACC, the binding signal (normalized occupancy) was 0.0713.
Next, CATAAAGC: 0.0734.
Consider GTAGTGAC, for which the binding signal (normalized occupancy) was 0.0722.
For the sequence CACATTCG, the binding signal (normalized occupancy) came out at 0.0806.
With CAGGGATC, the binding signal (normalized occupancy) turned out to be 0.0711.
For GAAGTTCC, the binding signal (normalized occupancy) is 0.0689.
As for AAGCGGGC, the binding signal (normalized occupancy) is 0.0687.
Next, GCGGACAA: 0.0734.
Next, AGATAGAG: 0.0744.
For the sequence ATCGTTAG, the binding signal (normalized occupancy) was determined as 0.0776.
Next, CACATTAG: 0.0876; GGCGCAGA: 0.0698.
To CAAGTACA belongs 0.0797; to GGCAGGTA, 0.0755.
Next, ATATCGGC: 0.0746; ATTTATAA: 0.0772.
Turning to CCATAACA, the binding signal (normalized occupancy) worked out at 0.0834.
Next, CCTACACA: 0.0861.
Next, CATACAGA: 0.0796; CTTGACCA: 0.0808; GAGCTTAA: 0.0698.
To GGTGTAAC belongs 0.074; to ACTATGCA, 0.0816; to CTTCTGTA, 0.0734.
With ACACCATA, the binding signal (normalized occupancy) was 0.0784.
To ACATTTCC belongs 0.0772; to AATATAGT, 0.0787; to ATAGTCAA, 0.0744.
To AATTCTAA belongs 0.0742; to AGATTTGA, 0.0778.
For the sequence AAATCTAA, the binding signal (normalized occupancy) was 0.0765.
In the case of GGATGGCA, the binding signal (normalized occupancy) was found to be 0.0835.
To AGGACTTG belongs 0.0674; to AATACATA, 0.0877.
As for GCGAAAAC, the binding signal (normalized occupancy) is 0.0681.
With AACACCAC, the binding signal (normalized occupancy) was 0.082.
As to GGCACAGA, the binding signal (normalized occupancy) was found to be 0.0703.
Next, CCTGTGCC: 0.0711; AAATCCGG: 0.0683.
To GTGTAAAC belongs 0.084; to AGCCATAC, 0.078; to AAGTAACC, 0.0745.
As to ACGGCAAG, the binding signal (normalized occupancy) stood at 0.0727.
To ATCACCTG belongs 0.0901; to TACTACAA, 0.0789; to ATCACAGC, 0.0808.
Next, AGTTACCA: 0.0803.
To ATTCGAGG belongs 0.0723; to AATGAGGC, 0.0776; to ATATATAC, 0.0839.
With CCATGATA, the binding signal (normalized occupancy) is 0.0845.
With ACTATGGG, the binding signal (normalized occupancy) is 0.0779.
As for ATTTGTCC, the binding signal (normalized occupancy) is 0.0771.
With ATACCACA, the binding signal (normalized occupancy) worked out at 0.089.
Next, CACGTCAA: 0.0816; ACCGCCAT: 0.0822; ATGTGTGC: 0.0957.
Take CCAACAAC: the binding signal (normalized occupancy) worked out at 0.0758.
Next, CCGGGCAC: 0.0682; CAACCAAG: 0.0759; GTGCACCA: 0.0813.
Next, ACGTATAT: 0.0827.
Next, ACCATTCA: 0.085; CCATTCTA: 0.0759; ACAGCTGT: 0.077.
As for AAATTACA, the binding signal (normalized occupancy) came out at 0.0754.
As to GCATAGGC, the binding signal (normalized occupancy) amounted to 0.0744.
With CAGTACGC, the binding signal (normalized occupancy) was found to be 0.0725.
To CGCTTTAA belongs 0.0696; to GGGCTACA, 0.0751; to TCTATGAA, 0.0694.
For CCTTAGGC, the binding signal (normalized occupancy) is 0.0728.
As for CAGAGAAG, the binding signal (normalized occupancy) was found to be 0.069.
Next, CACTTAAC: 0.0724.
Next, ACGCTCAA: 0.0699; AGTCCTAT: 0.0777; CCATTCCC: 0.0738.
Turning to CTAAGTGC, the binding signal (normalized occupancy) stood at 0.0724.
Next, CCATAGCG: 0.0775; CTTTTCTC: 0.0767; GAACTATA: 0.0863.
To CAGTCCGA belongs 0.0726; to GCGTGCAC, 0.109.
To ACCCGAGT belongs 0.0687; to CATGTTTC, 0.0831.
With ATACCTTC, the binding signal (normalized occupancy) amounted to 0.0788.
Take ACGGGGGA: the binding signal (normalized occupancy) turned out to be 0.0872.
